Some of the results follow.

The target in the assay is T1, OsWOX13 (Oryza sativa, UniProt Q5QMM3 1-267).
T1 sequence: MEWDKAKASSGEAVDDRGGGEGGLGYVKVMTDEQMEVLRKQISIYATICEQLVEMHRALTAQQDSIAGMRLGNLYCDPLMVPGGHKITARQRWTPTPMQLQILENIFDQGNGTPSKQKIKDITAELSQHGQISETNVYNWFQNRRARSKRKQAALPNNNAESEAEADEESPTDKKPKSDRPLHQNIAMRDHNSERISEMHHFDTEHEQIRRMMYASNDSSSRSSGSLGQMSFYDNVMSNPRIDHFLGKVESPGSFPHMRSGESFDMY
Put plainly: protein-binding microarray (RPBM); PBS, 2% BSA, 51.3 ng/ul salmon testes DNA, 50 uM zinc acetate, 200 nM TF, 25 C, 1 h; high values mean tight binding. The following applies: protein: recombinant; tags: N-terminal polyhistidine and DsRed monomer fusion (pET32a); label: CyDye5-dUTP incorporated in the synthesized complementary strand; 3' TTTTT single-stranded linker to array surface; dsDNA, one strand shown. The essentials:
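Using Ni–NTA, transcription factors fused N-terminally to polyhistidine and DsRed were purified after expression in E. coli BL21-CodonPlus. These were incubated at 200 nM with a blocked, double-stranded custom Agilent array for 1 h at 25 °C in a buffer containing 50 µM zinc acetate, and the array was washed. The binding signal is per-feature fluorescence intensity (arbitrary units) on an Axon 4000B scanner.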
Regarding “AAATAAATAATAGGTGACGTAATCTATTAATAGTGTAGTTCGGAGTCACCTAGTGCAG”, the binding signal was 8560 fluorescence intensity (a.u.). With “TTCAATTTGATTTTGATTTTAGGTGAATCTATAGATATCACGGAGTCACCTAGTGCAG” the figure was 9990 fluorescence intensity (a.u.). On to “AAACTGATTTATCTCTTAAATTACTTATCCAAATCATTATCGGAGTCACCTAGTGCAG”, for which the binding signal was 13900 fluorescence intensity (a.u.). With “TATACTTGATTAAGTGATCATTAATCATCTATACTACATACGGAGTCACCTAGTGCAG”, the binding signal is 16000 fluorescence intensity (a.u.).

For the sequence “ATATATATATATATATATATATATATATATATAAACCCAACGGAGTCACCTAGTGCAG”, the binding signal was 24000 fluorescence intensity (a.u.). With “TTGAAATTGAAATGATGTGACGGAAAAGTTGGAAGTTTATCGGAGTCACCTAGTGCAG” the figure was 14100 fluorescence intensity (a.u.). Regarding “TCACCAATCACCTGCCCTCACACCAACACGCCACGCGAACCGGAGTCACCTAGTGCAG”, the binding signal is 16500 fluorescence intensity (a.u.). In the case of “AGGGATGACAGAGAAATGTGGATCTGTTATTCTTCATTAGCGGAGTCACCTAGTGCAG”, the binding signal is 3290 fluorescence intensity (a.u.).

As to “CTATCTCATTGCTTAATTGGTCATATAATTGGGCTGAGTGCGGAGTCACCTAGTGCAG”, the binding signal was 16900 fluorescence intensity (a.u.).

In the case of “AGGTAATTGGACACCCACGGGTGACGATCCCCACTGTTCGCGGAGTCACCTAGTGCAG”, the binding signal is 28400 fluorescence intensity (a.u.). As to “TCTGATTGTACAGCTCTTATGGGTAAAGGAAAATCTGCAACGGAGTCACCTAGTGCAG”, the binding signal was 22200 fluorescence intensity (a.u.).

In the case of “GAGAGGAATTTAAATTGGAAGTGGTTGATGTGATAAGTGGCGGAGTCACCTAGTGCAG”, the binding signal is 7480 fluorescence intensity (a.u.). With “CAGTAAATGGAGTTATTAGCAATCCACAAGGGATAGATGCCGGAGTCACCTAGTGCAG” the figure was 6630 fluorescence intensity (a.u.); with “TATTGATATGATTTAAATTGTCCTTGGTCTTGGTGTATAACGGAGTCACCTAGTGCAG”, 40700 fluorescence intensity (a.u.). As to “TACGTTACTTTAATTTTAATTTATTTTGTTAGAACTATTTCGGAGTCACCTAGTGCAG”, the binding signal is 5520 fluorescence intensity (a.u.). With “AGCTACTTTAATTATACTTCTGAAGATTAAAGCAGCATGTCGGAGTCACCTAGTGCAG” the figure was 5010 fluorescence intensity (a.u.). “ACATCTTAATGATTTTCTCGAATTTAATGCATGACCTTCTCGGAGTCACCTAGTGCAG”: the binding signal was 5150 fluorescence intensity (a.u.).

Take “TTCAACATTATAAATTACAAATTAGTAGATGACTTGCATGCGGAGTCACCTAGTGCAG”: the binding signal was 11100 fluorescence intensity (a.u.). With “ATTAGATTGGAGATATATCTGAGGGAGTTAAACTGAACTTCGGAGTCACCTAGTGCAG” the figure was 18000 fluorescence intensity (a.u.); with “TGTTACTAATAATCAGTCATCATCAGGGACATCAACCACTCGGAGTCACCTAGTGCAG”, 7980 fluorescence intensity (a.u.); with “CTCTAAATTTGTTCGTCCGTGTCGTCCAGGTCACCAAACTCGGAGTCACCTAGTGCAG”, 6440 fluorescence intensity (a.u.). In the case of “TGTGATTTTGGTGCCAAAGAAAGATGGTTCATGGAGGATGCGGAGTCACCTAGTGCAG”, the binding signal is 3380 fluorescence intensity (a.u.). The same measure for “ACACTTTGACAGACAGTATCACTCGTATACAGACAACTTCCGGAGTCACCTAGTGCAG”: 8880 fluorescence intensity (a.u.); for “TTAATTAATTAGTCCACGGCGTTAATGATACTCCACCGATCGGAGTCACCTAGTGCAG”: 37300 fluorescence intensity (a.u.); for “AATTGACAGAGAGTTATCTAGATTCGTAATATTAGGATATCGGAGTCACCTAGTGCAG”: 21300 fluorescence intensity (a.u.). With “AGGGGATAGATGGAAATCATGACGGGAGTGGCACGGTTCTCGGAGTCACCTAGTGCAG” the figure was 11900 fluorescence intensity (a.u.). For the sequence “AATTAATCGTATACTAATCACTTTTCTGTGCGGCTAAGAGCGGAGTCACCTAGTGCAG”, the binding signal is 9100 fluorescence intensity (a.u.). With “TTAATTTGTATTTCTCAATAAACCGTTTAAAATTATTAGACGGAGTCACCTAGTGCAG” the figure was 6900 fluorescence intensity (a.u.); with “AAAATTAGGCTCTGCGTAATTGCCTTTAACCTGTAGTAACCGGAGTCACCTAGTGCAG”, 6170 fluorescence intensity (a.u.); with “CCAAAATCAGCGGCCAATCATTGAGTCAATCAAATTTCACCGGAGTCACCTAGTGCAG”, 29700 fluorescence intensity (a.u.). As for “CAGGTAATTGGGAGGGAATACCTTCTTTACTTTATCTAAGCGGAGTCACCTAGTGCAG”, the binding signal was 26400 fluorescence intensity (a.u.). With “ATTTACTAATCTCAATCTTGATCGATCGGATATAACCGAGCGGAGTCACCTAGTGCAG”, the binding signal was 8440 fluorescence intensity (a.u.). With “TACCCACTCAAATTAACTAATTAGTTAATTTTGTTTTGAACGGAGTCACCTAGTGCAG” the figure was 38800 fluorescence intensity (a.u.); with “GTGGATTATTAATTAGCAAAAGATAATCAGAAAACGGAAGCGGAGTCACCTAGTGCAG”, 30700 fluorescence intensity (a.u.); with “GGTAATAGAGAGACCACTAATAAAGATTGTTGTACCTGTGCGGAGTCACCTAGTGCAG”, 3690 fluorescence intensity (a.u.). The same measure for “ATAGATTGAAAATATTTTATGTTAGATTTGAAAACTTTTGCGGAGTCACCTAGTGCAG”: 18300 fluorescence intensity (a.u.). The same measure for “AATGACTTGACTTTGACAAATGTAGTTGAACAAAGTTGCACGGAGTCACCTAGTGCAG”: 4780 fluorescence intensity (a.u.). As for “CAAACAAATAGAATTTGATATGAATGATGCATCAATACACCGGAGTCACCTAGTGCAG”, the binding signal is 5740 fluorescence intensity (a.u.). The same measure for “ATGCTGATTAATGTCACCTTTTGGCCTTAATCATATAAGGCGGAGTCACCTAGTGCAG”: 37900 fluorescence intensity (a.u.); for “CCACAAATTAATCCCGCATGCTCTTGGCATTTACCCACCACGGAGTCACCTAGTGCAG”: 7950 fluorescence intensity (a.u.). Regarding “CATTAAATTTAAAATTAAGCTCTTAGATTTAAATCTAGATCGGAGTCACCTAGTGCAG”, the binding signal was 26600 fluorescence intensity (a.u.). Take “CCTTGACAAGTTTGTCCTCAATTTGATTTCAAGTCTAAAACGGAGTCACCTAGTGCAG”: the binding signal is 9490 fluorescence intensity (a.u.).
